Measured values as given in the supplement of paper PMC9446081.
The whole screen tested about 39,000 compounds, of which about 220 (0.56%) showed activity. The list shows a part of the results.

These compounds were tested on Escherichia coli K-12 BW25113 (assay: relative growth (OD600 normalised to plate interquartile mean) (fraction); higher = less growth inhibition, active = 0.2 or less). Settings: 50 µM; LB; incubation time: overnight (16-24 h).
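Note: static incubation at 37 °C against the wild-type strain, values averaged over two biological replicates.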

**Q.** For `COc1cccc(NC(=O)N(C)C[C@H]2Oc3cc(C#CC4(O)CCCC4)ccc3S(=O)(=O)N([C@H](C)CO)C[C@@H]2C)c1`, which relative growth is on record?
**A.** inactive: 1.02

**Q.** With `COCCn1c(=NN)[nH]c2ccsc2c1=O` as the compound, how does the relative growth read?
**A.** inactive: 0.982

**Q.** `Cc1ccc(S[C@]2(C(=O)O)CC(=O)N(Cc3cc(C(F)(F)F)cc(C(F)(F)F)c3)[C@@H]2c2ccc(CO)cc2I)cc1` was tested. Which relative growth did it give?
**A.** inactive: 0.962

**Q.** `C=C1C(=O)C(O)[C@H]2O[C@H]2C1=O` (some centres undefined) was tested. Which relative growth did it give?
**A.** inactive: 0.883

**Q.** Which relative growth does the source give for `COC(=O)[C@@H](Cc1ccc(-n2cc(C(=O)NO)nn2)cc1)N1CC2=CC(=O)[C@@H](C3CC3)[C@@H]2[C@H]1[C@H](O)Cc1ccccc1` here?
**A.** inactive: 0.987

**Q.** With `C[C@H](CO)N1C[C@H](C)[C@@H](CN(C)S(=O)(=O)c2ccc(F)cc2)OCCCC[C@H](C)Oc2ccc(NC(=O)Nc3ccc(C(F)(F)F)cc3)cc2C1=O` as the compound, how does the relative growth read?
**A.** inactive: 1.01

**Q.** Which relative growth does the source give for `NCCc1ccn[nH]1` here?
**A.** inactive: 0.976

**Q.** For `COc1ccc(C2Sc3ccccc3N(CCN(C)C)C(=O)C2OC(C)=O)cc1.Cl` (centres undefined), which relative growth is on record?
**A.** inactive: 1.12

**Q.** With `C[C@H]1CN([C@@H](C)CO)C(=O)c2cccc(NC(=O)C3CCCCC3)c2O[C@H]1CN(C)C(=O)Nc1ccc(C(F)(F)F)cc1` as the compound, how does the relative growth read?
**A.** inactive: 0.925

**Q.** For `CCCN(C)C[C@@H]1OCCCC[C@@H](C)Oc2ccc(NS(=O)(=O)c3ccc(Cl)cc3)cc2C(=O)N([C@H](C)CO)C[C@@H]1C`, which relative growth is on record?
**A.** inactive: 0.989

**Q.** How did the relative growth turn out when `C[C@@H]1CN([C@H](C)CO)C(=O)c2cc(NC(=O)Nc3ccc4c(c3)OCO4)ccc2O[C@@H]1CN(C)Cc1ccc(Oc2ccccc2)cc1` was run?
**A.** inactive: 1.01

**Q.** With `O=C1C2C[C@H]3C=C[C@]2(CN1C1CC1)O3` (some centres undefined) as the compound, how does the relative growth read?
**A.** inactive: 0.987

**Q.** `CC(C)CC#Cc1ccc2c(c1)O[C@@H](CN(C)C(=O)C1CCOCC1)[C@@H](C)CN([C@@H](C)CO)S2(=O)=O` was tested. Which relative growth did it give?
**A.** inactive: 0.987

**Q.** `CC(=O)Nc1ccc(S(=O)(=O)Nc2onc(C)c2C)cc1` was tested. Which relative growth did it give?
**A.** inactive: 0.866

**Q.** With `C[C@H]1CN([C@@H](C)CO)C(=O)c2cc(NC(=O)NC3CCCCC3)ccc2O[C@H]1CN(C)C(=O)Nc1ccc(C(F)(F)F)cc1` as the compound, how does the relative growth read?
**A.** inactive: 0.984

**Q.** How did the relative growth turn out when `Cc1noc(C)c1S(=O)(=O)Nc1cccc2c1O[C@@H](CN(C)S(=O)(=O)c1ccc(F)cc1)[C@@H](C)CN([C@H](C)CO)C2=O` was run?
**A.** inactive: 0.987

**Q.** With `CO[C@@H]1CN(C)C(=O)c2ccc(NS(=O)(=O)CC(F)(F)F)cc2OC[C@@H](C)N(C(=O)c2ccc3c(c2)OCO3)C[C@@H]1C` as the compound, how does the relative growth read?
**A.** inactive: 0.945

**Q.** Which relative growth does the source give for `Cc1ccc(S(=O)(=O)N[C@@H]2CC[C@H](CC(=O)NCc3ccc(Cl)c(Cl)c3)O[C@H]2CO)cc1` here?
**A.** inactive: 0.993

**Q.** With `C[C@H](CO)N1C[C@H](C)[C@@H](CN(C)S(C)(=O)=O)Oc2ccc(NC(=O)CCN3CCOCC3)cc2C1=O` as the compound, how does the relative growth read?
**A.** inactive: 1.01

**Q.** Which relative growth does the source give for `C[C@@H]1CCCCO[C@H](CN(C)C(=O)Nc2ccccc2)[C@@H](C)CN([C@@H](C)CO)C(=O)c2cc(NC(=O)Cc3ccccc3)ccc2O1` here?
**A.** inactive: 1

**Q.** For `C[C@@H]1CN([C@@H](C)CO)S(=O)(=O)c2ccc(-c3cncnc3)cc2O[C@H]1CN(C)C(=O)CN(C)C`, which relative growth is on record?
**A.** inactive: 0.997

**Q.** How did the relative growth turn out when `C[C@H]1CN([C@@H](C)CO)C(=O)c2cccc(NC(=O)C3CCOCC3)c2O[C@H]1CN(C)Cc1ccccc1` was run?
**A.** inactive: 0.962

**Q.** With `C[C@@H]1CN([C@H](C)CO)C(=O)c2cc(NC(=O)Nc3ccc(C(F)(F)F)cc3)ccc2O[C@H]1CN(C)Cc1ccc(Cl)c(Cl)c1` as the compound, how does the relative growth read?
**A.** inactive: 0.984

**Q.** Which relative growth does the source give for `CCCCCCCCCCCCCCCC(=O)OCC=C(C)C=CC=C(C)C=CC1=C(C)CCCC1(C)C` here?
**A.** inactive: 0.858

**Q.** `Cc1ccc(S(=O)(=O)Nc2ccc3c(c2)C(=O)N([C@@H](C)CO)C[C@@H](C)[C@H](CN(C)C(=O)NC(C)C)O3)cc1` was tested. Which relative growth did it give?
**A.** inactive: 1.02

**Q.** `C[C@@H]1CCCCO[C@H](CN(C)Cc2ccc(C(F)(F)F)cc2)[C@H](C)CN([C@@H](C)CO)C(=O)c2cc(NS(=O)(=O)c3ccccc3)ccc2O1` was tested. Which relative growth did it give?
**A.** inactive: 1.03

**Q.** With `CCS(=O)(=O)Nc1ccc2c(c1)C(=O)N(C)C[C@H](OC)[C@H](C)CN(C(=O)c1ccc3c(c1)OCO3)[C@@H](C)CO2` as the compound, how does the relative growth read?
**A.** inactive: 0.973

**Q.** Which relative growth does the source give for `CCS(=O)(=O)N1C[C@]2(C1)CN([C@@H](CO)c1c2c2ccc(cc2n1C)OC)C(=O)CN1CCOCC1` here?
**A.** inactive: 0.986

**Q.** Which relative growth does the source give for `C[C@H](CO)N1C[C@H](C)[C@H](CN(C)C(=O)Cc2ccccc2)OCCCC[C@H](C)Oc2ccc(NC(=O)Nc3ccc4c(c3)OCO4)cc2C1=O` here?
**A.** inactive: 0.97

**Q.** How did the relative growth turn out when `C[C@@H]1CN([C@@H](C)CO)C(=O)c2cccc(NC(=O)NC3CCCCC3)c2O[C@H]1CN(C)Cc1ccc(C(F)(F)F)cc1` was run?
**A.** inactive: 0.806

**Q.** With `CCCNC(=O)N1C[C@H](O)COC[C@@H]2O[C@H](CC(=O)NCc3ccncn3)CC[C@H]21` as the compound, how does the relative growth read?
**A.** inactive: 1.01

**Q.** With `C[C@H]1CN([C@@H](C)CO)C(=O)CCCn2cc(nn2)CO[C@H]1CN(C)C(=O)Nc1ccc(N2CCN(C)CC2)cc1` as the compound, how does the relative growth read?
**A.** inactive: 0.975

**Q.** How did the relative growth turn out when `COc1ccc(S(=O)(=O)N(C)C[C@@H]2Oc3ncc(C#Cc4cccc(F)c4)cc3C(=O)N([C@H](C)CO)C[C@@H]2C)cc1` was run?
**A.** inactive: 0.979

**Q.** For `CC(C)NC(=O)Nc1cccc2c1O[C@H](CN(C)S(=O)(=O)c1cccs1)[C@H](C)CN([C@@H](C)CO)C2=O`, which relative growth is on record?
**A.** inactive: 1.02

**Q.** Which relative growth does the source give for `C[C@@H]1CN([C@@H](C)CO)C(=O)CCCn2cc(nn2)CO[C@@H]1CN(C)S(=O)(=O)c1ccc(-c2ccccc2)cc1` here?
**A.** inactive: 1.01

**Q.** `O=C(C[C@H]1CC[C@@H](NC(=O)c2cnccn2)[C@H](CO)O1)NCc1ccccc1F` was tested. Which relative growth did it give?
**A.** inactive: 1

**Q.** How did the relative growth turn out when `CC(C)NC(=O)N(C)C[C@@H]1Oc2c(NS(=O)(=O)c3cn(C)cn3)cccc2C(=O)N([C@H](C)CO)C[C@H]1C` was run?
**A.** inactive: 1.03

**Q.** `C[C@H]1CCCCO[C@@H](CN(C)Cc2ccc(C(F)(F)F)cc2)[C@@H](C)CN([C@@H](C)CO)C(=O)c2cc(NS(=O)(=O)c3ccc(F)cc3)ccc2O1` was tested. Which relative growth did it give?
**A.** inactive: 1.02

**Q.** For `Cc1noc(C)c1NC(=O)N(C)C[C@@H]1OCCCC[C@H](C)Oc2ccc(NC(=O)NC3CCCCC3)cc2C(=O)N([C@H](C)CO)C[C@H]1C`, which relative growth is on record?
**A.** inactive: 0.989
